Assay results reported in ChEMBL document CHEMBL4888484, “Replenishing the malaria drug discovery pipeline: Screening and hit evaluation of the MMV Hit Generation Library 1 (HGL1) against asexual blood stage Plasmodium falciparum ,using a nano luciferase reporter read-out” (2022).
Out of some 150,000 compounds screened, about 540 (0.36%) showed an effect of 50% or more. The list shows a part of the results.

Test system: Plasmodium falciparum
Test: Primary screen in NF54 nanoGlo assay, in single point, at 2uM, 72h; a lower Z score goes with more inhibition
Type: functional, Erythrocyte
Details: timepoint 72 hour

| SMILES | % Inhibition [%] | Z score |
| --- | --- | --- |
| CC(C)(C)[C@@H]1NC(=O)CC[C@H]1NC(=O)[C@@H]1C[C@H]1c1ccc(Cl)cc1 | -11 | 0.92 |
| CC(C)c1cnc(CNc2nc(-c3nccn3C)no2)s1 | -12 | 1.61 |
| O=C(C1CCCCC1c1nc2ccccc2s1)N1CCC(c2nc3ccccc3s2)CC1 (stereo not given) | 0 | -0.07 |
| COc1ccc(F)cc1S(=O)(=O)N1CCc2noc(N)c2C1 | 72 | -5.81 |
| Cc1nccc(C(=O)Nc2nc(-c3cc(C)c(F)cc3F)cs2)n1 | -5 | 1.02 |
| COc1cccc(-c2noc(-c3cn(-c4ccc(C)c(C)c4)c(=O)c4ccccc34)n2)c1 | -3 | 0.48 |
| Cc1oncc1C(=O)NC[C@H]1Cc2ccccc2CO1 | 3 | -0.36 |
| CCCS(=O)(=O)NCCn1ccc(-c2ccsc2)n1 | -4 | 0.83 |
| CC(=O)N[C@H]1[C@H](NS(=O)(=O)c2cccc3nn(C)nc23)[C@@H]2CCO[C@@H]21 | -5 | 0.52 |
| O=C1C[C@H](N2CCN(C(c3ccccc3)c3ccccc3)CC2)C(=O)N1c1ccc(Oc2ccccc2)cc1 | -5 | 0.69 |
| CCOCC(=O)N1CCN(C(=O)C2CCCC2)CC1 | 0 | -0.04 |
| CCNC(=O)[C@@]1(OCc2cccc(C)c2)CC(OCc2ccccc2C#N)[C@@H]2OC(C)(C)O[C@@H]2C1 (stereo not given in full) | -3 | 0.37 |
| CC(C)c1ccc(N(C)C(=O)[C@H](C)NC(=O)C(C)(C)C)cc1 | -8 | 1.25 |
| Cn1cccc1CN1C[C@@H](CO)[C@H](NC(=O)c2cccnc2)C1 | -7 | 1.32 |
| COC[C@@](C)(O)CNC(=O)c1cc(C)oc1C | -6 | 0.91 |
| COc1ccc2c(c1)CCc1cnc(-n3ncc(C(=O)NCc4ccccn4)c3C)nc1-2 | -4 | 0.69 |
| O=C1NCCCc2[nH]c(-c3cc(-c4ccccc4Cl)on3)nc21 | -6 | 1.16 |
| CS(=O)(=O)C1(c2ccc(C#N)cc2)CC1 | -11 | 1.75 |
| Cc1nc(Cc2noc([C@@H]3CCCc4ccccc43)n2)no1 | -3 | 0.56 |
| CC[C@H]1OCC[C@@H]1NS(=O)(=O)c1cc(Br)c(F)cc1C | -8 | 0.65 |
| CC(C)(C)n1nnc(CN2CCC[C@H](c3nc4c(s3)CCC4)C2)n1 | -3 | 0.61 |
| CC(C)Oc1nccnc1N1CC[S@+]([O-])C(C)(C)C1 | -11 | 1.29 |
| OC(CN(CC1CCOC1)C1CC1)c1ccc(OC(F)(F)F)cc1 (stereo not given) | -1 | 0.1 |
| Cc1noc(NC(=O)N2CCCCC[C@H]2c2ccccc2)n1 | 0 | 0.03 |
| N#Cc1cccnc1NCCCNc1ncccc1C#N | -21 | 1.88 |
| O=C(CS(=O)(=O)CC1CCCO1)N1CCCC(n2cccn2)C1 (stereo not given) | -4 | 0.36 |
| COc1ccc(CCNC(=O)Cn2ncc(N(C)C)cc2=O)cc1 | -18 | 2.67 |
| CO[C@H]1CS(=O)(=O)C[C@@H]1Nc1nc(C)nc(C)c1C | -9 | 1.1 |

| SMILES | % Inhibition [%] | Z score |
| --- | --- | --- |
| CC(C)(C)n1ncc2c(Oc3ccc(-n4cncn4)cc3)ncnc21 | -1 | 0.12 |
| COC(=O)[C@H](C)NCC(=O)Nc1ccc(F)cc1 | -41 | 4.78 |
| O=C(NCCCOCC1CC1)NC1CCCC2OCCC12 (stereo not given) | -26 | 3.07 |
| CC1CCC(N(CCC(=O)O)C[C@H]2CCCO2)CC1 (stereo not given in full) | -23 | 2.3 |
| CC(COC1CCOC1)Nc1ncncc1Br (stereo not given) | 2 | -0.33 |
| CC[C@H]1CC[C@@H](C)N(C(=O)c2n[nH]c3ccccc23)C1 | -6 | 1.03 |
| Cc1[nH]c2c(C)ccc(C)c2c1CC(=O)NCCN(C)S(C)(=O)=O | -15 | 2.51 |
| CCOC(=O)N1CCN(c2nc3ccc(C)cc3cc2CN[C@@H](C)COC)CC1 | -12 | 1.72 |
| Nc1cc(N2CCO[C@H](c3nccs3)C2)c(Cl)cn1 | 2 | -0.37 |
| COc1ccccc1C1(c2nnc(-c3ccc(S(C)(=O)=O)cc3)o2)CCOCC1 | -8 | 1.51 |
| Cc1cc2nc(-c3cccc4ncccc34)[nH]c2cc1C | -8 | 1.6 |
| O=C(c1ccc2ccncc2c1)N1CCC[C@@H]1CO | -5 | 0.85 |
| Cc1ccc(NC(=O)N[C@H](C(=O)OC(C)(C)C)C(C)C)cc1 | -13 | 2.4 |
| Cc1noc(C)c1CCC(=O)N1CCC[C@H](C(=O)c2ccc3c(c2)OCO3)C1 | 4 | -0.59 |
| O=C(c1cnn(-c2ccc(F)cc2F)c1)N1CCC[C@@H]1CO | 1 | -0.21 |
| Cn1ccc2c(OCC(=O)N3CCOCC3)cccc21 | -1 | 0.14 |
| CCn1cc(-c2n[nH]cc2Br)cn1 | -7 | 1.14 |
| COC(=O)c1ncccc1OCc1coc(-c2c(F)cccc2F)n1 | -1 | 0.08 |
| Cc1ccc(-c2nc3cccnc3s2)cc1NS(=O)(=O)c1ccc(Cl)s1 | -3 | 0.6 |
| Cc1ccc(NC(=O)N(CCC#N)C(C)C)cc1Cl | -5 | 0.51 |
| CCOC1CC(NC(=O)N2CCS(=O)(=O)C(C)C2C)C12CCCO2 (stereo not given) | -3 | 0.61 |
| COc1ccc(-n2nc(C)c3sc(N4CCC(NC(=O)C5CCC5)CC4)nc32)cc1 | -2 | 0.25 |
| CN(C)S(=O)(=O)c1ccc(-c2noc(-c3ccnn3C)n2)cc1 | -1 | 0.13 |
| Cn1cnnc1CNC(=O)c1cc2c(Cl)cccc2s1 | -15 | 2.76 |
| CN1C[C@@H](CNCc2ccnn2C)Cc2ccccc21 | -10 | 1.47 |
| O=C(c1c(F)cccc1F)N1CCN(c2cc(N3CCCC3)ncn2)CC1 | -11 | 1.22 |
| CCN(c1ccccc1)c1noc([C@H]2CC(=O)N(CC)[C@@H]2c2cnn(C)c2C)n1 | -9 | 1.44 |
